# Assay results from PubChem BioAssay AID588453 (National Center for Advancing Translational Sciences (NCATS), 2011).
# Screen size: about 390,000 compounds; about 4,000 (1%) were called active. Inconclusive means that the source gave no clear call. Such entries were picked first, then a sample of the others. Calls follow the shape of the dose curve; as a rule, active = well fitted inhibition curve with a large enough effect; inconclusive = small, poorly fitted or top-dose-only effect; inactive = no such curve, though single readings can be large or run the other way. A potency beside an inconclusive call is a rough fit, not a confirmed value.
# Target: Thioredoxin reductase 1, cytoplasmic (Rattus norvegicus) (UniProt O89049)
# Assay: qHTS Assay for Inhibitors of Mammalian Selenoprotein Thioredoxin Reductase 1 (TrxR1): qHTS; also: nearly all actives have a fitted effect of over 65% in size
# Conditions: recombinant rTrxR1, NADPH fluorescence consumption, selenite substrate; series mostly up to 114 µM; activity change, negative = inhibition: at the top concentration
# Summary of the method: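 Rat TrxR1 (90 nM in the dispensed reagent) was pre-reduced with 400 uM NADPH for 5 min at room temperature, then incubated with compound for 15 min. After 400 uM selenite was added, NADPH fluorescence (Ex 340/Em 450 nm) was followed for 8 min.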
# % is scaled to controls: 0 for no effect and ±100 for the full control effect; potency is read from the fitted curve at half-maximal effect; tags tell the direction and shape of the fitted curve.
# Sequence of UniProt O89049 (O89049 whole entry, looked up): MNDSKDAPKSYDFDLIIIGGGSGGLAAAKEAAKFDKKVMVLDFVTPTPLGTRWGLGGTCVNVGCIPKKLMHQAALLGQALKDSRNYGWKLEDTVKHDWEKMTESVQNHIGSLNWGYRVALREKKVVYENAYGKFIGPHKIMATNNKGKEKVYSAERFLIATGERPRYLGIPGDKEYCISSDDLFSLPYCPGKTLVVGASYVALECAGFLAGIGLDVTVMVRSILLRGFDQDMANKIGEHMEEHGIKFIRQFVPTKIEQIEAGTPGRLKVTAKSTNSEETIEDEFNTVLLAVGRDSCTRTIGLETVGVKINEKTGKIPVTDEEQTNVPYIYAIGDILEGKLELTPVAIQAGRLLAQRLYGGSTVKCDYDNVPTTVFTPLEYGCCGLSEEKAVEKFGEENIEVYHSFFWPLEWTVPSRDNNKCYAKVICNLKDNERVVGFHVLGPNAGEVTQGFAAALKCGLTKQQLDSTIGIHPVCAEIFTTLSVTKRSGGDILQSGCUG
SMILES,Potency,"activity change, negative = inhibition"
S=C(NCc1ccncc1)Nc1ccc(Cl)c(Cl)c1,"inconclusive: 12.6 µM [inhibitor, partial curve, poor fit]",–
O=C(CCS(=O)(=O)c1nc(-c2cccs2)cc(C(F)(F)F)n1)Nc1ccc(F)c(Cl)c1,"inconclusive: 10 µM [inhibitor, full curve, poor fit]",–
CCOC(=O)C(=O)NCc1ccc(/C=C2/N=C(C)C(C(=O)OCC)=C2O)o1,"inconclusive: 28.2 µM [inhibitor, single point]",–
Cc1cc(C)c(S(=O)(=O)n2cc(C(C)C(N)C(=O)O)c3ccccc32)c(C)c1 (stereo unspecified),"inconclusive: 31.6 µM [inhibitor, partial curve]",–
Cc1cc(OCc2n[nH]c(=S)n2-c2ccccc2)ccc1Cl,"inconclusive: 15.8 µM [inhibitor, partial curve, poor fit]",–
CCOC(=O)CCC(=O)Nc1cc(S(=O)(=O)N2CCOCC2)ccc1N1CCCCC1,–,inactive: 21.7%
COc1ccc(NC(=O)CN2CCN(CC(=O)Nc3ccccc3F)CC2)cc1OC,"inconclusive: 31.6 µM [inhibitor, partial curve, poor fit]",–
Cc1cccnc1NC(=S)Nc1ccc(Br)cc1Cl,"inconclusive: 89.1 µM [inhibitor, single point]",–
O=C(Nc1nc2nccc(-c3ccccc3)n2n1)c1ccccc1,–,inactive: -13.6%
C#CCOCCOCCOCCNc1nc(N2CCN(C(=O)CCCCCCCCCCNC(=O)[C@H]([C@@H](C)CC)n3cc(CCCCCN)nn3)CC2)nc(N2CCN(C(=O)CCCCCCCCCCNC(=O)[C@H](CO)n3cc(CCCCCN)nn3)CC2)n1,"inconclusive: 89.1 µM [inhibitor, partial curve, poor fit]",–
Cc1oc(-c2ccccc2)cc1C(=O)Nc1cccc2ccccc12,"inconclusive: 56.2 µM [inhibitor, partial curve, poor fit]",–
O=C1CS/C(=N/N=C/c2ccco2)N1Cc1ccc(F)cc1,"inconclusive: 50.1 µM [inhibitor, partial curve, poor fit]",–
CO/N=C(\C(=O)N[C@@H]1C(=O)N2C(C(=O)O)=C(COC(C)=O)CS[C@H]12)c1csc(N)n1,"inconclusive: 23.8 µM [inhibitor, partial curve, poor fit]",–
OC(c1ccccc1)C1CN(Cc2ccccc2)CCC1(O)c1ccccc1 (stereo unspecified),"inconclusive: 6.31 µM [inhibitor, single point]",–
Cc1cccc(-n2c(=O)c(C#N)cc3c(=O)n4ccccc4nc32)c1,"inconclusive: 100 µM [inhibitor, single point]",–
CCCCc1cc(-c2n[nH]c(=S)o2)c2ccccc2n1,"inconclusive: 39.8 µM [inhibitor, single point]",–
O=C(NCc1ccc(Cl)cc1)C1CCN(S(=O)(=O)c2cccs2)CC1,"inconclusive: 20 µM [inhibitor, single point]",–
Nc1[nH]c(=S)[nH]c(=O)c1-c1ccccc1,"inconclusive: 31.6 µM [inhibitor, partial curve]",–
CCN(CC)c1ccc(/C=C2/SC(=O)N(C(C)C)C2=O)o1,active: 3.16 µM,–
Cc1cc(-c2ccc(C)c(S(=O)(=O)Nc3cccc(C#N)c3)c2)on1,–,inactive: 21.7% [at 57.1 µM]
COc1ccc(OC)c(C2C(C#N)=C(N)Oc3c2c(C)nn3-c2cccc(Cl)c2)c1 (stereo unspecified),–,inactive: -23.4%

SMILES,Potency,"activity change, negative = inhibition"
O=C(COc1ccc(F)cc1)NCCc1nc2ccccc2[nH]1,–,inactive: 1.3%
O=C(NNC(=S)NC(=O)c1ccc(F)cc1)c1cccnc1,"inconclusive: 50.1 µM [inhibitor, partial curve, poor fit]",–
COc1ccc(N2CCc3c(C)nc4c(OC)cc(OC)cc4c32)cc1,–,inactive: 5.19% [at 57.1 µM]
O=S(=O)(/N=C(/NC(=S)Nc1ccccc1)c1ccccc1)c1ccc(Cl)cc1,"inconclusive: 20 µM [inhibitor, full curve, poor fit]",–
O=S(=O)(O)c1cc(O)c2cc(Nc3ccccc3)ccc2c1,"inconclusive: 25.1 µM [inhibitor, single point]",–
Cc1cccc(-c2nc(S(=O)(=O)c3ccccc3)c(N3CCOCC3)o2)c1,"inconclusive: 50.1 µM [inhibitor, partial curve]",–
Oc1ccc2ccccc2c1CN1CCN(C/C=C/c2ccccc2)CC1,"inconclusive: 3.98 µM [inhibitor, full curve]",–
C[n+]1ccc(/C=C/c2ccc(Br)cc2)cc1,"inconclusive: 79.4 µM [inhibitor, partial curve, poor fit]",–
Cc1ccc(NS(=O)(=O)c2ccc(C(=O)N3CCN(c4ncccn4)CC3)cc2)cc1,–,inactive: 24.3% [at 57.1 µM]
O=C(NC(NC(=S)Nc1ccc(Cl)c(Cl)c1)C(Cl)(Cl)Cl)c1ccco1 (stereo unspecified),"inconclusive: 2.51 µM [inhibitor, full curve, poor fit]",–
COc1cccc(C(=O)CN2CCN(S(=O)(=O)c3cccc([N+](=O)[O-])c3)CC2)c1,active: 8.91 µM,–
CCCOC(=O)c1ccc(-c2ccc(C=O)o2)cc1,active: 31.6 µM,–
O=C(CC1SC(=O)N(c2ccccc2)C1=O)Nc1cccc2ccccc12 (stereo unspecified),"inconclusive: 20 µM [inhibitor, full curve, poor fit]",–
CCOC(=O)c1[nH]c(C)c(C(=O)Nc2ccc3c(c2)OCCO3)c1C,"inconclusive: 20 µM [inhibitor, single point]",–
Nc1nnc(/C=C/c2cccc([N+](=O)[O-])c2)s1,–,inactive: 25.6%
CCOC(=O)/C(=C\c1ccc(Cl)cc1)c1nc2sc(C)c(C)c2c(=O)[nH]1,"inconclusive: 7.08 µM [inhibitor, full curve]",–
CC1CCc2cc(F)ccc2N1C(=O)CCl (stereo unspecified),"inconclusive: 22.4 µM [inhibitor, partial curve]",–
CC(C)(C)C(=O)Nc1ccc(Sc2ccc([N+](=O)[O-])cc2)cc1,–,inactive: -6.39%
O=C(C1=C(O)C(=O)N(Cc2ccco2)C1c1cccs1)c1cccs1 (stereo unspecified),"inconclusive: 20 µM [inhibitor, full curve, poor fit]",–
CSc1nsc(SCc2cnc(C)nc2N)n1,"inconclusive: 20 µM [inhibitor, single point]",–
